The campaign covered roughly 310,000 compounds. About 2,200 (0.71%) showed an effect of 50% or more. The effect is printed as a negative number. This is one part of the list.
biological target: human ether-à-go-go-related gene (hERG) potassium channel (human, UniProt Q12809); assay: primary screen, population patch clamp on CHO cells stably expressing hERG
Sequence (Q12809 whole entry, looked up): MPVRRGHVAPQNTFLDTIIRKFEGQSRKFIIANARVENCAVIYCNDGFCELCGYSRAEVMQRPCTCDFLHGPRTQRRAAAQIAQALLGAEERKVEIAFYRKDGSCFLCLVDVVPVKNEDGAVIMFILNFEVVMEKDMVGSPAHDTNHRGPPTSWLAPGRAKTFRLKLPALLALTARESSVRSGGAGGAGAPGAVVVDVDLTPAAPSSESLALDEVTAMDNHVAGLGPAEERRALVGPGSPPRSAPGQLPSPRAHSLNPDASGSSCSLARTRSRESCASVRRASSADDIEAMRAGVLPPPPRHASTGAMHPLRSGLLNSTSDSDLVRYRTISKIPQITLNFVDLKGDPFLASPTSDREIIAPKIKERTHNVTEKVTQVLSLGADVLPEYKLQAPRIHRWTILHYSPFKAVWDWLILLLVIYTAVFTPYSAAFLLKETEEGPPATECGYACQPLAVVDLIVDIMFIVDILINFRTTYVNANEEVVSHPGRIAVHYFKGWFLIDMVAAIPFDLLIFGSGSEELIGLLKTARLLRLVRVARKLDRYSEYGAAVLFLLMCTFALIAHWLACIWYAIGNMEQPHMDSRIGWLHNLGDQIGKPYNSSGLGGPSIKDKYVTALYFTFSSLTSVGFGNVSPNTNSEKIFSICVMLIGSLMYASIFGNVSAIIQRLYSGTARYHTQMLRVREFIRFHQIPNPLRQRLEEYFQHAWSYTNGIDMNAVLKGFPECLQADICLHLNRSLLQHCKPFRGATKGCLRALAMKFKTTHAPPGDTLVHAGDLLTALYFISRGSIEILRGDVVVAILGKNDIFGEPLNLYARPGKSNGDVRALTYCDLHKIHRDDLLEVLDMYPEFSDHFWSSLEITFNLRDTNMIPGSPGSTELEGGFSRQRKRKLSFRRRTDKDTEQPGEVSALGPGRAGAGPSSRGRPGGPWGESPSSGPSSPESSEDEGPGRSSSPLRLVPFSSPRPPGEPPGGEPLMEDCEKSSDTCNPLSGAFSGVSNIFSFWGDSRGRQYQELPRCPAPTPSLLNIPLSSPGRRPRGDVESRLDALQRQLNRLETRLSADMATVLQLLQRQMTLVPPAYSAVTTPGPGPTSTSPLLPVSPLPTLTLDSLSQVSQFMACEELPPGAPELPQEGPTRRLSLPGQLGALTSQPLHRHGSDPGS

| Compound | hERG current change (%, negative = inhibition) at 1uM |
| --- | --- |
| S=c1nc(-c2ccccc2Br)[nH][nH]1 | 14.4% |
| COC(=O)c1cc(Br)cn1S(=O)(=O)c1ccccc1 | 8.38% |
| Cc1cc2cc(CNC(=O)c3ccc(S(=O)(=O)N4CCOCC4)cc3)ccc2n1C | 14.9% |
| CCCCn1c(N)c(N(CC)C(=O)c2ccc(C#N)cc2)c(=O)[nH]c1=O | 14.4% |
| COC(=O)C1CCN(C(=O)c2ccccc2NC(C)=O)CC1 | 13.7% |
| Cn1c(=O)c2ncn(CC(=O)Nc3ccc4c5c(cccc35)CC4)c2n(C)c1=O | 7.27% |
| Cc1c(-c2ccccc2)oc2c(C(=O)OCC(=O)Nc3cccc(F)c3)cccc2c1=O | 5.94% |
| C=CCn1c(SCC(=O)Nc2ccc3c(c2)OCO3)nnc1-c1ccccc1OC | 3.27% |
| O=C(NC1CCSC1=O)C1CC(=O)N(c2ccc(F)cc2)C1 (stereo not shown) | 10.9% |
| CC(CCc1ccccc1)NCc1cccc2ccccc12.O=C(O)C(=O)O (stereo not shown) | -7.56% |
| Cc1cccc(/C(N)=N/OC(=O)Cc2cccc3ccccc23)c1 | 2.71% |
| CC(=O)NC(Cc1ccccc1)Cc1ccccc1 | 16% |
| Nc1nnn(CC(=O)N/N=C/c2ccncc2)n1 | 11.4% |
| CCOC(=O)N1CCC(N2CCCC(C(=O)c3ccc4cc(OC)ccc4c3)C2)CC1 (stereo not shown) | -55.1% |
| CC1CCN(CC(=O)N2CCc3ccccc32)CC1 | 13.4% |
| Cc1ccc(C(=O)c2nc3c(n2O)CCCC3)cc1 | 0.101% |
| Cc1ccccc1NC(=O)COC(=O)c1cc[n+]([O-])cc1 | -3.27% |
| O=S(=O)(c1ccc(Cl)cc1)N1CCCCC1c1cccnc1 (stereo not shown) | -3.3% |
| Cc1cccc(-n2c(O)c(C=Nc3ccccc3-c3n[nH]c(=S)[nH]c3=O)c3ccccc3c2=O)n1 | -5.25% |
| COc1ccc(-c2csc(NCCc3nc4cc(Cl)c(Cl)cc4n3CCCO)n2)cc1 | 7.25% |
| CCn1c(=O)c2cc(C(=O)NC(C)C)sc2c2ccccc21 | 6.27% |
| CCOC(=O)c1c(NC(=O)CSc2nnc(CNc3ccc(F)cc3)o2)sc(C(C)=O)c1C | 8.34% |
| Cc1ccc(NC(=O)/C=C/c2ccc(Cl)cc2)nc1 | 21.4% |

| Compound | hERG current change (%, negative = inhibition) at 1uM |
| --- | --- |
| CC(C)c1c(O)nc(SCCC(=O)O)[nH]c1=O | 3.76% |
| Cc1cc(/C(N)=N/OC(=O)c2ccccc2Cl)no1 | 5.21% |
| COc1ccc(C(=O)CSc2nnc(CNc3ccc(C)cc3C)n2Cc2ccco2)cc1 | 8.09% |
| COc1ccc(C(=O)NCCc2ccc(Cl)cc2)cc1S(=O)(=O)N1CCCCC1C (stereo not shown) | -19.2% |
| Cc1cc(NC(=O)COc2nnc(-c3ccccc3)c3ccccc23)no1 | 6.52% |
| COc1cccc(NC(=O)CS(=O)(=O)Cc2nc(-c3ccc(C)cc3)oc2C)c1 | 11.5% |
| COCCN(C(=O)C1=COCCO1)c1c(N)n(CC(C)C)c(=O)[nH]c1=O | 4.31% |
| CC(=O)Nc1ccc(NC(=O)C(C)OC(=O)/C=C/c2cnc3ccccc3n2)cc1 (stereo not shown) | 5.5% |
| O=C1C2C3c4ccccc4C(c4ccccc43)C2C(=O)N1c1cccc2cccnc12 (stereo not shown) | 7.48% |
| O=C(c1ccco1)N1CCN(C2CC(=O)N(c3ccc4c(c3)OCO4)C2=O)CC1 (stereo not shown) | -3.02% |
| O=S(=O)(Nc1nc2ccccc2nc1-[n+]1cccc(N=C([O-])c2ccccc2Cl)c1)c1ccccc1 | 12.3% |
| COc1ccc(CCN(C)C(=O)CSc2nnc(C3CC3)n2N)cc1OC | -8.93% |
| CC1=C(C(=O)N2CCOCC2)C(c2ccsc2)C2=C(CCCC2=O)N1 (stereo not shown) | 1.98% |
| Cc1ccc(OCc2ccc(C(=O)NNC(=S)NCC3CCCO3)o2)c([N+](=O)[O-])c1 (stereo not shown) | -3.39% |
| Cc1[nH]n(-c2ccc([N+](=O)[O-])cc2)c(=O)c1C=NCC1CCCO1 (stereo not shown) | 7.67% |
| CC(C)C(c1nnnn1C(C)(C)C)N1CCN(Cc2cccnc2)CC1.Cl (stereo not shown) | 9.26% |
| Cc1[nH]n2c(=O)cc(-c3ccc([N+](=O)[O-])cc3)nc2c1-c1ccccc1 | 5.66% |
| Cc1noc(C)c1COC(=O)C(c1ccccc1)c1ccccc1 | 15% |
| O=C1Nc2cc(Cl)ccc2Nc2cscc21 | 11.7% |
| Cc1cccc(-n2c(SCC(=O)Nc3ncc(Cl)cc3Cl)nc3ccccc32)c1 | 16.8% |
| CCOC(=O)C1(CC2CC2)CCN(Cc2cnc(-c3ccc(OC)cc3)nc2)CC1 | 11.7% |
| Cc1ccc(C(=O)Nc2ccc(S(=O)(=O)N3CCOCC3)cc2)cc1C | 10.5% |
| O=C(Cn1c(=O)oc2ccc(Cl)cc21)NC1CCCCC1 | 15% |

| Compound | hERG current change (%, negative = inhibition) at 1uM |
| --- | --- |
| CCOC(=O)CSc1nc2c(c(=O)n(Cc3ccccc3Cl)c(=O)n2C)n1C | 9.65% |
| CC(C)c1ccc(CNNC(=O)c2ccccc2)cc1 | 12% |
| CCOC(=O)N1CCN(Cc2nc(N)nc(Nc3ccc(Oc4ccccc4)cc3)n2)CC1 | -36.8% |
| CC1=NN(C(=O)c2ccccc2)C(O)(c2ccc(Br)cc2)C1 (stereo not shown) | 14.8% |
| CC(=O)c1cccc(CN2CCCC(CCC(=O)NCc3ccc(F)c(F)c3)C2)c1 (stereo not shown) | -39.3% |
| COc1ccc(N2CCN(C(=O)Cc3ccc(Cl)cc3)CC2)cc1 | 13.4% |
| COc1cccc(S(=O)(=O)Nc2noc3ccccc23)c1 | 14% |
| O=c1[nH]ncn1-c1ccc(Br)cc1 | 9.73% |
| CCc1nn(CC(=O)NCCC(C)C)c(=O)c2cc3c(OC)cccc3n12 | 12.3% |
| CCOc1ccccc1NC(=O)c1ccc2c(c1)C(=O)N(CC1CCCO1)C2=O (stereo not shown) | 13.7% |
| CC(C)Cc1ccc(-c2cc(=O)[nH][nH]2)cc1 | 8.03% |
| Cc1nc(SCC(=O)N2CCc3ccccc32)n[nH]1 | 12.6% |
| CCCCOC(=O)Nc1ccccc1C(=O)OC | 4.58% |
| COc1ccc(-c2cc(=O)oc3cc(O)ccc23)cc1 | 14.3% |
| NS(=O)(=O)c1ccc(N/C=C/C(=O)c2ccc(Br)cc2)cc1 | 10.5% |
| O=c1c2ccccc2n2cnnc2n1-c1ccccc1 | 2.26% |
| Cc1ccc(-n2nc(C)cc2N)c(C)c1.Cl | 13.5% |
| Cc1nc(C(=O)NNC(=O)c2ccccc2Cl)c(C(F)(F)F)o1 | 11.7% |
| COc1ccc(C(=O)CSc2n[nH]c(=O)[nH]c2=O)cc1 | 12.4% |
| COC(=O)NNC(=O)COc1ccc(Cl)cc1 | -11.4% |
| Cc1nn(C)c(C)c1Sc1ccccc1N | 14.4% |
| COc1ccc(CNC(=O)CSCc2cccc(Cl)c2)cc1 | 6.58% |
| COc1cc(NC(=O)CCNS(=O)(=O)c2ccc3c(c2)CCC(=O)N3)cc(OC)c1 | 11.6% |

| Compound | hERG current change (%, negative = inhibition) at 1uM |
| --- | --- |
| CN(CC(=O)Nc1ccc(Cl)c(C(F)(F)F)c1)C(=O)C1CC(=O)N(Cc2ccco2)C1 (stereo not shown) | 6.39% |
| COc1ccc(CC2(CO)CCN(Cc3cnn(-c4ccccc4OC)c3)CC2)cc1 | -48.4% |
| COc1cccc(-n2nc(C(C)=O)c(=O)[nH]c2=O)c1 | 11.4% |
| O=C(Cc1ccc(Br)cc1)NNC(=O)Nc1ccc(Cl)cc1 | 12.9% |
| O=C(NNC(=O)c1ccc2ccccc2c1O)c1cccs1 | 12.6% |
| COc1ccc2o/c(=N\O)c(C(=O)Nc3ccccc3OC)cc2c1 | 15.1% |
| O=C(NCc1ccccc1)c1ccc(S(=O)(=O)N2CCCC2)cc1 | 2.43% |
| CC(=O)Nc1nonc1-c1nc2ccccc2n1CCC#N | 10.3% |
| CCC(NC(=O)c1cc(COc2ccc(C)nc2)on1)c1ccc(C)cc1 (stereo not shown) | 4.56% |
| COc1cccc(CN2CC(C(=O)NC3(c4ccccc4)CC3)CCC2=O)c1 (stereo not shown) | 7.97% |
| COC(=O)c1ccc(CSc2nnc(NC(=O)C3CCCO3)s2)cc1 (stereo not shown) | 1.91% |
| COc1ccc(CCC(=O)O)c(O)c1 | 7.81% |
| COc1ccc(CC(CC(=O)O)C(=O)Nc2ccc(OC)cc2)cc1 (stereo not shown) | 7.68% |
| CCOc1ccc(CCNC(=O)CSCC(=O)Nc2ccc(OC)cc2)cc1OCC | 8.24% |
| O=C(OCc1ccc(Br)cc1)c1cnc(Cl)c(Cl)c1 | 15.3% |
| CC(C)Cc1nc(Nc2ccccc2C#N)c2nnn(Cc3ccccc3)c2n1 | -5.32% |
| Cn1c(=O)[nH]c(=O)c2c1nc(SCC(=O)O)n2Cc1ccccc1 | 6.06% |
| CCC(CC)NC(=O)COC(=O)c1ccc(OCC(=O)Nc2ccccc2OC)c(OC)c1 | 16.8% |
| O=C(OCN1C(=O)C(=O)c2ccccc21)c1ccc(Cl)cc1 | 21.3% |
| Cc1cc([N+](=O)[O-])cc2c1-c1ncccc1C2=Nc1ccccc1 | -2.86% |
| O=C(Nc1ccc(Cl)c(S(=O)(=O)N2CCCCC2)c1)C1=COCCO1 | 1.21% |
| Cl.OCCCCNCc1ccc(OCc2ccc(Cl)cc2Cl)cc1 | -0.92% |

Source: article PMC4336329 (PLoS ONE, 2015)
